Assay results: patent publication US20250326800A1, “NOVEL POLYPEPTIDES” (Oncopeptides Innovation 1 AB, priority 2022, published 2025)

Legend:
MM1.S target cells = assay: Calcein-release-based in vitro cytotoxicity assay with NK cells; format: cell-based; details: 4 h co-culture, NK:target 1:1
CD16a = assay: CD16 activation Jurkat-Lucia Luciferase reporter assay; format: cell-based, human

B1: Example Compound 144: dual engager without C-terminal His6 tag (protein)
chain: VDNKFNKENQFADEEIAALPNLNFYQKWAFIRKLMDDPSQSANLLAEAKKLNDAQAPKGGGSGGGGSGVDNKFNKENQFADEEIAALPNLNFYQKWAFIRKLMDDPSQSANLLAEAKKLNDAQAPKGGGSGGGGSGVDNKFNKEVQMAQFEIRKLPNLNHHQSFAFIKSLMDDPSQSANLLAEAKKLNDAQAPK
With B1 the “NK cell mediated killing of MM.1S cells” value (MM1.S target cells) was “induced NK cell mediated killing of MM.1S cells”, the “CD16a activation in the absence of target cells” value (CD16a; no MM.1S cells) was “no detectable activation” and the CD16a activation (CD16a; presence of MM.1s target cells, 24 h, normalized to Elotuzumab) was “demonstrated CD16a activation”.
